According to PubChem BioAssay AID1963576 (National Center for Advancing Translational Sciences (NCATS), 2024):
Screen size: about 46,000 compounds; about 60 (0.1%) were called active. About 3% were inconclusive and are not listed. Calls come from the whole dose curve; as a rule, active = well fitted inhibition curve with a large enough effect; inconclusive = small, poorly fitted or top-dose-only effect; inactive = no such curve, though single readings can be large or run the other way. Some of the results follow.

Assay: Primary qHTS assay for Inhibitors of ovarian cancer metastasis using an organotypic tumor microenvironment (TME) model.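 For activity change, negative = inhibition: plate controls were DMSO wells for no effect and tomatine positive control wells for full effect.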 Note: nearly all actives have a fitted effect of over 65% in size.
Conditions: SKOV3ip1-GFP adhesion/invasion on 3D omental model, fluorescence; series mostly up to 45.8 µM; activity change, negative = inhibition: at the top concentration
Summary of the method: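 Adhesion/invasion was scored as fixed GFP-labeled SKOV3ip1 cell counts (488/509 nm), normalized to DMSO and tomatine controls. Cancer cells in serum-free medium, with four compound doses (0.36-46 umol/L), sat 2 hr at RT then 16 hr at 37 C on a 48 hr fibroblast/mesothelial/ECM culture.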

Activity change, negative = inhibition, inactive:
COc1ccc(C(=O)N2CCCCC2CCN2CCOCC2)cc1 (stereo unspecified) -27.8%
Cc1ccc(-n2ncc(C(=O)NCc3ccc4c(c3)OCO4)c2C2CCN(C(=O)OC(C)(C)C)CC2)cc1C 16.9%
Cc1ccc(NCc2cccn2-c2nnc(N3CCC(C(=O)NCc4ccccc4C)CC3)s2)cc1 1.02%
COc1ccc(CN2CCCN(CC(=O)Nc3ccc(Br)cc3F)S2(=O)=O)cc1 4.28%
CC(C)c1cnn2c(NCc3ccccc3)cc(NCCCCCCN)nc12 -29.4%
Cc1c(Cl)cccc1NC(=O)c1cc(-c2cccs2)on1 -3.96%
CN(C(=O)CSc1nc2ccc(NC(=O)COc3ccc(F)cc3)cc2s1)c1ccccc1 -16%
Cc1cc(-c2ccc(S(=O)(=O)Nc3cccc(C(F)(F)F)c3)s2)on1 7.54%
CC(C)Sc1ncc(Cl)c(C(=O)Nc2nc3ccc(S(C)(=O)=O)cc3s2)n1 -7.84%
Cc1c(C(=O)N(C)C)sc2c1c(=O)n(-c1ccccc1C(F)(F)F)c(=O)n2Cc1ccccc1C#N 0.329%
Cc1ccc(-c2nc3cc(Cl)ccc3o2)cc1NC(=O)c1cc2ccccc2o1 -21.3%
COc1ccc(NC(=O)Cn2c(=O)n(Cc3nc(C)no3)c(=O)c3cc4c(cc32)OCO4)cc1 9.49%
COc1ccc(NC(=O)c2cc3c(=O)n(Cc4cccs4)ccc3nc2C)c(OC)c1 -8.55%
Cc1cc(C)c(NC(=O)C2CCN(C(=O)N3CC(C)Oc4ccc(Cl)cc43)CC2)c(C)c1 (stereo unspecified) 4.14%
COc1ccccc1CNC(=O)CCCn1c(=O)c2ccccc2n(CC(=O)Nc2ccc(C)cc2Cl)c1=O 17.2%
Cc1ccccc1Cn1c(=O)n(CC2CCC(C(=O)N3CCC(C)CC3)CC2)c(=O)c2sccc21 (stereo unspecified) -15.7%
CC(C)Cc1nn2c(=O)cc(COC(=O)c3cccc(NC(=O)c4cccs4)c3)nc2s1 -3.4%
COc1cccc(CNC(=O)CSc2cc(C)[nH]c(=O)n2)c1 36.8%
Cc1oc(-c2ccc(C(=O)NCCCOC(C)C)cc2)nc1CS(=O)(=O)c1ccccc1 6.07%
CC(=O)N1CCN(C(=O)C(=O)Nc2c3c(nn2-c2ccc(Cl)cc2)CSC3)CC1 0.531%
Cc1cccc(NC(=O)CSc2ncc3c(n2)-c2cc(Cl)ccc2N(C)S3(=O)=O)c1C 0.987%
CC(C)c1ccc(Nc2cc(C(=O)NCCCN(C)Cc3ccccc3)c3ccccc3n2)cc1 7.49%
O=C(COc1ccccc1)Nc1c(C(=O)N2CCN(c3ccc(F)cc3)CC2)oc2ccccc12 16.1%
CC1CCN(C(=O)CN2c3ccc(Br)cc3-c3ccccc3S2(=O)=O)CC1 -25.3%
COc1ccc(-c2nnc(SCC(=O)N3CCCCC3)o2)cc1 0.449%
CCOc1ccc2c(c1)c(=O)c(S(=O)(=O)c1ccc(CC)cc1)cn2CC 1.11%
CCc1ccc(OCC(=O)Nc2cc3oc4ccccc4c3cc2OC)c(Br)c1 -1.63%
Cc1c(C(=O)N2CCCCCC2)c(S(=O)(=O)Nc2ccc(OC(F)(F)F)cc2)c(C)n1C 0.266%
CCOc1ccc(CCNC(=O)CCCc2nnc3n(CCCOC)c(=O)c4sccc4n23)cc1 3.23%
O=C1CC(c2ccccc2)Cc2[nH]c(=O)c(C(=O)Nc3ccc(F)cc3)cc21 (stereo unspecified) -26.3%
CCOC(=O)c1ccc(NC(=O)CSc2cc(-c3ccccc3)nc(C)n2)cc1 -5.11%
Cc1c(-c2ccc(Cl)cc2)c(=O)oc2c(CN3CCN(C)CC3)c(O)ccc12 15.7%
Cc1ccc(C)c(N(C)C(=O)CCNC(=O)Cn2cnc3ccccc3c2=O)c1 0.627%
O=C(Nc1cccc(Cl)c1)C(Cc1ccccc1)n1cccc1 (stereo unspecified) -5.15%
CCC1Oc2ccc(C)cc2N(CC(=O)NCc2ccc(F)cc2)C1=O (stereo unspecified) 0.295%
O=S(=O)(c1cccc2cnccc12)N1CCCNCC1 13.8%
CCOc1ccc(C2c3c(-c4ccccc4O)n[nH]c3C(=O)N2Cc2cccnc2)cc1OC (stereo unspecified) -5.55%
COc1cccc2sc(N(Cc3cccnc3)C(=O)C3CCCCC3)nc12 -7.76%
CCOC(=O)C1CCCN(C(=O)c2cc3c(Cl)nc4ccccc4c3s2)C1 (stereo unspecified) 3.81%
CCOC(=O)c1ccc2c(c1)sc1nc(-c3ccc(OCC)cc3)cn12 -11.1%
CCN(CC)CCCNC(=O)c1c2c(nc3ccccc13)C(=O)N(C1CCCCC1)C2 -6.98%
CCOC(=O)c1c(NC(=O)c2cc(=O)c3cc(Cl)ccc3o2)sc(C)c1C 9.42%
COc1ccc(NC(=O)CCc2nc3cccnc3n2-c2ccccc2)c(OC)c1 0.974%
Cc1cccc2sc(N(Cc3cccnc3)C(=O)CCS(=O)(=O)c3ccccc3)nc12 -19.8%
COc1ccc(N2C(=O)C(CC(=O)Nc3ccc(Cl)cc3)N(Cc3ccc4c(c3)OCO4)C2=O)cc1 (stereo unspecified) 2.93%
CCN1CCN(C(c2ccc(C)cc2)c2sc3nc(-c4ccco4)nn3c2O)CC1 (stereo unspecified) 8.72%
CCOc1ccc(CCNC(=O)CSc2nnnn2-c2ccccc2Cl)cc1OCC -22.1%
COc1cc(C(=O)Nc2ccccc2OCc2cc(=O)n3c(C)csc3n2)cc(OC)c1OC -2.46%
Cc1ccc(C)c(N2CCN(C(=O)CN3CCSc4ccccc43)CC2)c1 -3.78%
Cc1cccc(-c2nc(SCc3cc(=O)c4cccc(F)c4[nH]3)n[nH]2)c1 -2.51%
CC1N=C2c3ccccc3N=C(SCC(=O)NCc3ccc(Cl)cc3)N2C1=O (stereo unspecified) 0.0584%
COCCCNC(=O)c1sc2nc(C)c(C(=O)Nc3ccc(Cl)cc3)c(-c3ccc(Br)cc3)c2c1N 1.6%
CCN(CC)c1nn2c(=O)c(C(=O)NCc3cccc(OC)c3OC)cnc2s1 7.67%
COc1ccc(CNC(=O)c2cnn(-c3ccc(OC)cc3)c2C2CCN(C(=O)OC(C)(C)C)CC2)cc1 5.43%
CCS(=O)(=O)N1CC(=O)N(c2cccc(C)c2C)C(C)(C(=O)NC2CCCCCC2)C1 (stereo unspecified) 7.91%
O=C1c2oc3ccccc3c(=O)c2C(c2ccccc2F)N1Cc1ccc2c(c1)OCO2 (stereo unspecified) 8.63%
O=C(Nc1cccc2cccnc12)c1cccc2c(Br)cccc12 -0.353%
CCc1cc2c(cc3c(=O)n(CC(=O)NC4CCC(C)CC4)nc(CC)n32)s1 (stereo unspecified) -5.44%
Cc1ccccc1OCC(=O)NCC(c1ccc(Cl)cc1)N1CCOCC1 (stereo unspecified) 1.84%
CCC(=O)Nc1cc(-c2nc3cc(C)cc(C)c3o2)ccc1C -32.2%
Cc1cccc2c1-c1sc(C(=O)Nc3ccccc3C(N)=O)cc1CO2 -6.99%
O=C1c2[nH]nc(-c3ccccc3O)c2C(c2cccc(Br)c2)N1Cc1ccncc1 (stereo unspecified) 3.49%
CN(C(=O)CSc1cn(CC(=O)N2CCCC2)c2ccccc12)c1ccccc1 -0.53%
COc1ccc(NC(=O)Cn2ccn(Cc3ccccc3)c(=O)c2=O)cc1Cl 13%
CCOC(=O)c1ccc(NC(=O)c2cccc3c(=O)c4c([nH]c23)CCCC4)cc1 4.71%
CCc1ccccc1NC(=O)Cn1c(C(=O)OC)cc2oc(C)cc21 4%
COc1ccc(-n2c(Cc3ccccc3)nnc2SCc2nc(-c3ccccc3C)no2)cc1 4.61%

outcome, inactive:
CC1=C(c2ccc(C)c(C)c2)S(=O)(=O)N=C1N1CCN(c2cccc(C)c2)C(C)C1 (stereo unspecified)
CCOc1ccc(NC(=O)CC2Nc3cccc4cccc(c34)NC2=O)cc1 (stereo unspecified)
Cc1c(C(=O)N2CCC(C)CC2)c(S(=O)(=O)Nc2cccc(C#N)c2)c(C)n1C
CCOC(=O)c1c(C)[nH]c(C)c1S(=O)(=O)N(C)CC(=O)Nc1cccc(Cl)c1C
Cc1cc(C)cc(NS(=O)(=O)c2ccc(-c3cc(C)no3)s2)c1
COc1ccc(-c2nsc(NC(=O)COc3ccccc3OC)n2)cc1
Cc1ccc(C(=O)COC(=O)CCCC(=O)Nc2cc(C(F)(F)F)ccc2Cl)cc1C
Cc1c(Cl)cccc1NC(=O)CSc1nc(=O)n(Cc2ccncc2)c2c1CCC2
Cn1c(=O)n(Cc2ccccc2Cl)c(=O)c2c1nc1n2CCN1c1ccccc1
Cc1cc(Nc2ccccc2F)n2nc(Cc3ccc(Cl)cc3)nc2n1
COc1cc2c(cc1OC)n(CC(=O)Nc1ccc(C)cc1C)c(=O)n1nc(-c3ccccc3)nc21
CCn1ccc2cc(S(=O)(=O)N3CCCN(C(=O)Nc4ccc(C)cc4Cl)CC3)ccc21
COC(=O)c1ccc(C2c3c(-c4ccc(Br)cc4)n[nH]c3C(=O)N2c2ccc(Cl)cc2)cc1 (stereo unspecified)
O=C(CNC(=O)c1ccccc1Cl)OCc1cc(=O)n2nc(C3CC3)sc2n1
CC(C)CC(=O)Nc1nnc(S(=O)(=O)N(C)c2ccc(Cl)cc2)s1
CC(C)c1nn2c(=O)cc(COC(=O)c3cccc(NC(=O)c4ccccc4F)c3)nc2s1
CC1CCc2c(sc3nc(-c4cc5ccccc5oc4=O)nc(Cl)c23)C1 (stereo unspecified)
O=C(NCCS(=O)(=O)N1CCN(c2ccccc2F)CC1)c1ccccc1C(F)(F)F
COc1cccc(CNC(=O)Cn2c(=O)cc(C(F)(F)F)c3c(C)nn(C)c32)c1OC
Fc1ccc(F)c(Nc2c3c(nc4ccc(Cl)cc24)CCC3)c1
COCCn1c(=N)c(C(=O)NCC2CCCO2)cc2c(=O)n3ccccc3nc21 (stereo unspecified)
COc1cccc(NC(=O)CSc2cc(C)[nH]c(=O)n2)c1
Cc1c2cnn(-c3ccccc3)c(=O)c2c(C)n1CC(=O)N1CCN(c2cccc(Cl)c2)CC1
Cc1nc(SCC(=O)Nc2ccccc2Cl)cc(-c2ccccc2)n1
COc1cccc(-c2n[nH]c3c2C(c2cccc(O)c2)N(C)C3=O)c1 (stereo unspecified)
Cc1c(C(=O)N(C)c2ccccc2)sc2nc(-c3ccc(F)cc3)cn12
Cc1cc(C)cc(NC(c2cccc(Cl)c2)c2nnc(-c3ccccc3)o2)c1 (stereo unspecified)
CCCCOc1ccc(S(=O)(=O)Nc2ccc(-c3ccc(N4CCCCC4)nn3)cc2)cc1
O=C(Nc1ccc(Br)cc1F)c1ccc2nc(CCc3ccccc3)oc2c1
